# Data published in publication PMC5892938.
# This is one part of the list. At the low end of the ranking, values are background and their order means little.
# Target: GST-SBP-SLBP (stem-loop binding protein) (UniProt Q14493)
# Test: targeted RNA Bind-n-Seq;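 further: DESeq read counts versus GST-SBP nonspecific binding control pulldown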
# Settings: RBNS binding buffer: 25 mM Tris pH 7.5, 150 mM KCl, 3 mM MgCl2, 0.1% Tween, 0.5 mg/mL BSA, 1 mM DTT; 27 nM protein, 750 pM RNA pool; temperature not stated; high values mean tight binding
row,Sequence,binding signal (log2 fold change)
1,GGUCACGUCUCAAUCAACUCAUCCUCAGGAGUUUCCUCCUGCAAUCUCAACAGCUCGCAGUCAAG,0.187
2,GGUCACGUCUCAAUCAACUCUAUCGAGGGGGGGAAAACCCCUUUACCCUCAUUAUCAACAGCUCGCAGUCAAG,-0.151
3,GGUCACGUCUCAAUCAACUCAAUCCCAGGAGUUUACUCCUGUUAUGUCAACAGCUCGCAGUCAAG,0.0212
4,GGUCACGUCUCAAUCAACUCAUUUUCCAGGGAAACCCCUGGUUAUUUCAACAGCUCGCAGUCAAG,-0.221
5,GGUCACGUCUCAAUCAACUCAACUCCCAGGGAAACCCCUGGUUAACUCAACAGCUCGCAGUCAAG,-0.196
6,GGUCACGUCUCAAUCAACUCUAUCUCCAGGGAAAGCCCUGGUAUAUUCAACAGCUCGCAGUCAAG,0.00657
7,GGUCACGUCUCAAUCAACUCAAUCCCAGGAGUUUUCUCCUGUUAACUCAACAGCUCGCAGUCAAG,0.104
8,GGUCACGUCUCAAUCAACUCUUUCCCCAGGGAAAACCCUGGCUAUUUCAACAGCUCGCAGUCAAG,-0.0232
9,GGUCACGUCUCAAUCAACUCAAUUCCAGGAGUUUACUCCUGUUUUUUCAACAGCUCGCAGUCAAG,-0.0915
10,GGUCACGUCUCAAUCAACUCUAUCUCAGGAGUUUUCUCCUGCUUUCUCAACAGCUCGCAGUCAAG,0.0177
11,GGUCACGUCUCAAUCAACUCAAUGUCAGGAGUUUUCUCCUGCUUUCUCAACAGCUCGCAGUCAAG,0.104
12,GGUCACGUCUCAAUCAACUCUAUCUCCAGGGAAAACCCUGGCUUACUCAACAGCUCGCAGUCAAG,0.0425
13,GGUCACGUCUCAAUCAACUCUAUCGCAGGAGUUUACUCCUGGUAAUUCAACAGCUCGCAGUCAAG,0.0219
14,GGUCACGUCUCAAUCAACUCAUCUUCAGGAGUUUCCUCCUGCAUUCUCAACAGCUCGCAGUCAAG,0.152
15,GGUCACGUCUCAAUCAACUCAAUCCCCAGGGAAAGCCCUGGCUUACUCAACAGCUCGCAGUCAAG,-0.0119
16,GGUCACGUCUCAAUCAACUCACAAGAGGGGGGGAAAACCCCUUUGCCCUCAACUUCAACAGCUCGCAGUCAAG,-0.0129
17,GGUCACGUCUCAAUCAACUCAUCGUCAGGAGUUUCCUCCUGUAAAUUCAACAGCUCGCAGUCAAG,0.00895
18,GGUCACGUCUCAAUCAACUCAGUCCCAGGAGUUUACUCCUGUAUAUUCAACAGCUCGCAGUCAAG,-0.00892
19,GGUCACGUCUCAAUCAACUCAACUUCCAGGGAAACCCCUGGCAAUCUCAACAGCUCGCAGUCAAG,-0.26
20,GGUCACGUCUCAAUCAACUCAUCUCCAGGAGUUUACUCCUGCUUACUCAACAGCUCGCAGUCAAG,-0.111
21,GGUCACGUCUCAAUCAACUCUUCUUCCAGGGAAACCCCUGGUAAUUUCAACAGCUCGCAGUCAAG,0.191
22,GGUCACGUCUCAAUCAACUCUACUUCAGGAGUUUCCUCCUGCUAUUUCAACAGCUCGCAGUCAAG,0.00994
23,GGUCACGUCUCAAUCAACUCCCAUGAGGGGGGGAAAACCCCUUUACCCUCCAUUUCAACAGCUCGCAGUCAAG,0.0842
24,GGUCACGUCUCAAUCAACUCUCACGAGGGGGGGAAAACCCCUUUACCCUCAUACUCAACAGCUCGCAGUCAAG,0.202
25,GGUCACGUCUCAAUCAACUCUUCCGAGGGGGGGAAAACCCCUUUACCCUCAUUAUCAACAGCUCGCAGUCAAG,-0.222

row,Sequence,binding signal (log2 fold change)
1,GGUCACGUCUCAAUCAACUCAUUUCCAGGAGUUUACUCCUGUAAUUUCAACAGCUCGCAGUCAAG,0.165
2,GGUCACGUCUCAAUCAACUCAUCUUCAGGAGUUUUCUCCUGUUUUCUCAACAGCUCGCAGUCAAG,0.00207
3,GGUCACGUCUCAAUCAACUCAUUUCCCAGGGAAAGCCCUGGCUAUUUCAACAGCUCGCAGUCAAG,-0.0705
4,GGUCACGUCUCAAUCAACUCUUUUCCAGGAGUUUCCUCCUGUUUAUUCAACAGCUCGCAGUCAAG,-0.0297
5,GGUCACGUCUCAAUCAACUCUUUCUCAGGAGUUUACUCCUGCUAUUUCAACAGCUCGCAGUCAAG,0.0481
6,GGUCACGUCUCAAUCAACUCCUUAGAGGGGGGGAAAACCCCUUUACCCUCGAAUUCAACAGCUCGCAGUCAAG,-0.209
7,GGUCACGUCUCAAUCAACUCAUUUCCAGGAGUUUUCUCCUGCAUAGUCAACAGCUCGCAGUCAAG,0.138
8,GGUCACGUCUCAAUCAACUCAUCCUCAGGAGUUUUCUCCUGCAUUUUCAACAGCUCGCAGUCAAG,0.0528
9,GGUCACGUCUCAAUCAACUCCUCUGAGGGGGGGAAAACCCCUUUACCCUCUAUUUCAACAGCUCGCAGUCAAG,-0.49
10,GGUCACGUCUCAAUCAACUCAUCCUCAGGAGUUUUCUCCUGCAAUGUCAACAGCUCGCAGUCAAG,0.197
11,GGUCACGUCUCAAUCAACUCUUUUCCCAGGGAAAUCCCUGGCAAUCUCAACAGCUCGCAGUCAAG,0.00717
12,GGUCACGUCUCAAUCAACUCAUCGCCAGGAGUUUCCUCCUGCAAAUUCAACAGCUCGCAGUCAAG,0.16
13,GGUCACGUCUCAAUCAACUCAUCUUCAGGAGUUUCCUCCUGCUUUUUCAACAGCUCGCAGUCAAG,0.03
14,GGUCACGUCUCAAUCAACUCAAUCCCAGGAGUUUUCUCCUGUUUUCUCAACAGCUCGCAGUCAAG,0.21
15,GGUCACGUCUCAAUCAACUCAAUCCCAGGAGUUUUCUCCUGCUUACUCAACAGCUCGCAGUCAAG,0.0488
16,GGUCACGUCUCAAUCAACUCAAUUUCAGGAGUUUCCUCCUGCUUAUUCAACAGCUCGCAGUCAAG,0.0437
17,GGUCACGUCUCAAUCAACUCAUCCCCAGGAGUUUGCUCCUGUAUAUUCAACAGCUCGCAGUCAAG,0.204
18,GGUCACGUCUCAAUCAACUCAACUCCAGGAGUUUUCUCCUGCAAUUUCAACAGCUCGCAGUCAAG,-0.0321
19,GGUCACGUCUCAAUCAACUCAUCGGCCAGGGAAACCCCUGGGAAUUUCAACAGCUCGCAGUCAAG,-0.0485
20,GGUCACGUCUCAAUCAACUCUAUCUCCAGGGAAAUCCCUGGUAUUUUCAACAGCUCGCAGUCAAG,-0.184
21,GGUCACGUCUCAAUCAACUCUUCUCCAGGAGUUUCCUCCUGUUAUUUCAACAGCUCGCAGUCAAG,-0.0232
22,GGUCACGUCUCAAUCAACUCUACUUCCAGGGAAAGCCCUGGUAAUCUCAACAGCUCGCAGUCAAG,-0.214
23,GGUCACGUCUCAAUCAACUCAUGUCCAGGAGUUUCCUCCUGUAAUCUCAACAGCUCGCAGUCAAG,-0.0512
24,GGUCACGUCUCAAUCAACUCAUGUCCAGGAGUUUCCUCCUGCUAAUUCAACAGCUCGCAGUCAAG,-0.0153
25,GGUCACGUCUCAAUCAACUCAAUUUCCAGGGAAAUCCCUGGCAUAGUCAACAGCUCGCAGUCAAG,-0.0357

row,Sequence,binding signal (log2 fold change)
1,GGUCACGUCUCAAUCAACUCAUUCCCCAGGGAAACCCCUGGCAAACUCAACAGCUCGCAGUCAAG,-0.031
2,GGUCACGUCUCAAUCAACUCACUCGAGGGGGGGAAAACCCCUUUACCCUCACACUCAACAGCUCGCAGUCAAG,0.0789
3,GGUCACGUCUCAAUCAACUCUCCAGAGGGGGGGAAAACCCCUUUACCCUCGAAUUCAACAGCUCGCAGUCAAG,0.0484
4,GGUCACGUCUCAAUCAACUCCCUCGAGGGGGGGAAAACCCCUUUACCCUCUUAUUCAACAGCUCGCAGUCAAG,0.102
5,GGUCACGUCUCAAUCAACUCUUUUCCCAGGGAAAGCCCUGGUAUUCUCAACAGCUCGCAGUCAAG,0.000225
6,GGUCACGUCUCAAUCAACUCAACUUCAGGAGUUUACUCCUGCAAACUCAACAGCUCGCAGUCAAG,-0.0233
7,GGUCACGUCUCAAUCAACUCUUCUUCCAGGGAAACCCCUGGUUUACUCAACAGCUCGCAGUCAAG,-0.207
8,GGUCACGUCUCAAUCAACUCUAUCUCAGGAGUUUACUCCUGUUUACUCAACAGCUCGCAGUCAAG,-0.103
9,GGUCACGUCUCAAUCAACUCAUUCUCCAGGGAAAACCCUGGCUAUCUCAACAGCUCGCAGUCAAG,0.0805
10,GGUCACGUCUCAAUCAACUCUUCCCCCAGGGAAAACCCUGGCUUUCUCAACAGCUCGCAGUCAAG,0.0728
11,GGUCACGUCUCAAUCAACUCUACUUCAGGAGUUUUCUCCUGUUAUUUCAACAGCUCGCAGUCAAG,-0.086
12,GGUCACGUCUCAAUCAACUCAAUCUCCAGGGAAACCCCUGGCAUUCUCAACAGCUCGCAGUCAAG,0.0212
13,GGUCACGUCUCAAUCAACUCAAUUUCCAGGGAAAGCCCUGGUAUAUUCAACAGCUCGCAGUCAAG,-0.000548
14,GGUCACGUCUCAAUCAACUCAUCCUCAGGAGUUUCCUCCUGCUAACUCAACAGCUCGCAGUCAAG,0.14
15,GGUCACGUCUCAAUCAACUCAAUCGAGGGGGGGAAAACCCCUUUACCCUCAUCGUCAACAGCUCGCAGUCAAG,-0.236
16,GGUCACGUCUCAAUCAACUCUACUCCCAGGGAAACCCCUGGUUAAUUCAACAGCUCGCAGUCAAG,0.28
17,GGUCACGUCUCAAUCAACUCUACUCCCAGGGAAAACCCUGGUUUAUUCAACAGCUCGCAGUCAAG,-0.194
18,GGUCACGUCUCAAUCAACUCAUUUUCAGGAGUUUUCUCCUGUUAUUUCAACAGCUCGCAGUCAAG,-0.0528
19,GGUCACGUCUCAAUCAACUCAGUUCCAGGAGUUUCCUCCUGCUUUUUCAACAGCUCGCAGUCAAG,-0.0811
20,GGUCACGUCUCAAUCAACUCUUCCCCCAGGGAAACCCCUGGCUAUGUCAACAGCUCGCAGUCAAG,-0.0705
21,GGUCACGUCUCAAUCAACUCAUCGCCAGGAGUUUUCUCCUGUUAACUCAACAGCUCGCAGUCAAG,0.0248
22,GGUCACGUCUCAAUCAACUCACUAGAGGGGGGGAAAACCCCUUUGCCCUCAAUCUCAACAGCUCGCAGUCAAG,0.124
23,GGUCACGUCUCAAUCAACUCUUCUCCCAGGGAAAGCCCUGGUAAUUUCAACAGCUCGCAGUCAAG,0.124
24,GGUCACGUCUCAAUCAACUCAAUCUCCAGGGAAAACCCUGGUAAAUUCAACAGCUCGCAGUCAAG,0.0922
25,GGUCACGUCUCAAUCAACUCAACUUCAGGAGUUUGCUCCUGUUUUCUCAACAGCUCGCAGUCAAG,0.0673
